In paper PMC12624777, “Degradation of CaMKII is stimulated by its active conformation” (The Journal of Biological Chemistry, 2025):

B1: SNAP::dCaMKII WT (Drosophila CaMKII, PC isoform, with an N-terminal SNAP-tag) (enzyme)
chain: MAAPAACTRFSDNYDIKEELGKGAFSIVKRCVQKSTGFEFAAKIINTKKLTARDFQKLEREARICRKLHHPNIVRLHDSIQEENYHYLVFDLVTGGELFEDIVAREFYSEADASHCIQQILESVNHCHQNGVVHRDLKPENLLLASKAKGAAVKLADFGLAIEVQGDHQAWFGFAGTPGYLSPEVLKKEPYGKSVDIWACGVILYILLVGYPPFWDEDQHRLYSQIKAGAYDYPSPEWDTVTPEAKNLINQMLTVNPNKRITAAEALKHPWICQRERVASVVHRQETVDCLKK[skipping about 20 residues]SRSMITKKGEGSQVKESTDSSSTTLEDDDIKAARRQEIIKITEQLIEAINSGDFDGYTKICDPHLTAFEPEALGNLVEGIDFHKFYFENVLGKNCKAINTTILNPHVHLLGEEAACIAYVRLTQYIDKQGHAHTHQSEETRVWHKRDNKWQNVHFHRSASAKISGATTFDFIPQK
modifications: TMR-Star (fluorescent SNAP-ligand) on the SNAP-tag
notes: numbers count on: the PC isoform of 490 aa; Sizes predominantly as a dodecamer by gel filtration; also called WT dCaMKII; fly CaMKII; source: HEK293T, transfected, in cleared lysate; copies: 12
B2: SNAP::dCaMKII F400A (Drosophila CaMKII hub mutant with an N-terminal SNAP-tag) (enzyme)
chain: MAAPAACTRFSDNYDIKEELGKGAFSIVKRCVQKSTGFEFAAKIINTKKLTARDFQKLEREARICRKLHHPNIVRLHDSIQEENYHYLVFDLVTGGELFEDIVAREFYSEADASHCIQQILESVNHCHQNGVVHRDLKPENLLLASKAKGAAVKLADFGLAIEVQGDHQAWFGFAGTPGYLSPEVLKKEPYGKSVDIWACGVILYILLVGYPPFWDEDQHRLYSQIKAGAYDYPSPEWDTVTPEAKNLINQMLTVNPNKRITAAEALKHPWICQRERVASVVHRQETVDCLKK[skipping about 20 residues]SRSMITKKGEGSQVKESTDSSSTTLEDDDIKAARRQEIIKITEQLIEAINSGDFDGYTKICDPHLTAFEPEALGNLVEGIDFHKAYFENVLGKNCKAINTTILNPHVHLLGEEAACIAYVRLTQYIDKQGHAHTHQSEETRVWHKRDNKWQNVHFHRSASAKISGATTFDFIPQK
modifications: TMR-Star (fluorescent SNAP-ligand) on the SNAP-tag
notes: numbers count on: the PC isoform of 490 aa; Essentially all dimer by gel filtration of crude extract; also called fly hub mutant; dCaMKII hub mutant; source: HEK293T, transfected, in cleared lysate

Target: the molecule itself
Test: SEC; analytical gel filtration, Superose 6 10/300 GL, 50 mM Tris pH 7.5, 150 mM NaCl, 1 mM TCEP, 0.4 ml/min; cleared HEK293T lysate injected without additional purification; detected by TMR-Star fluorescence; size estimated from Kav against MW standards

| Protein | stoichiometry N |
| --- | --- |
| B1 | 12 |
| B2 | 2 |
